Experimental data reported in patent publication US20230192841A1 (NANJING LEGEND BIOTECH, published 2023).
Read-outs that look alike come from different tables or passages of the source.

Tests used:
human Claudin18.2 [1] = target: T1, human Claudin18.2 (human, UniProt P56856-2 1-261); experiment: flow cytometry, PANC1.huCLDN18.2.Luc cells, at 10 nM
T1 construct: whole, on cells; expressed on Dubca, HEK293T, PANC1 cells by lentiviral transduction; endogenous on NUGC4 and KATOIII cells; also called huCLDN18.2; CLDN18.2
Procedure: (§1) Briefly, 5.0×10⁵ PANC1.huCLDN18.1.Luc or PANC1.huCLDN18.2.Luc cells in DPBS (pH7.2) were incubated with serially diluted anti-Claudin18.2 VHH-hIgG1Fc at 4° C. for 45 min, followed by wash-centrifugation-supernatant depletion-cell washing cycles for 3 times with DPBS. After wash, cell pellets were re-suspended in DPBS and incubated with a secondary antibody (1:200, Alexa Fluor™ 488 GOAT anti-human IgG (H+L) Antibody, Invitrogen, Cat. No. A1 1013) at 4° C. for 30 min in dark. The cells were then subject to wash-centrifugation-supernatant depletion-cell washing cycles for 3 times with DPBS. The cells were then run on Attune NXT flow cytometry to detect antibody-PANC1.huCLDN18.1.Luc or PANC1.huCLDN18.2.Luc binding level. Binding capabilities of each test antibody were described as Percentage of Binding, calculated with (cells with antibody binding/total cells)× 100 %.

human Claudin18.2 [2] = target: T1, human Claudin18.2; experiment: flow cytometry, PANC1.huCLDN18.2.Luc cells, percentage of binding
Procedure: as §1

human Claudin18.1 [3] = target: T2, human Claudin18.1 (human, UniProt P56856 1-261); experiment: flow cytometry on PANC1.huCLDN18.1.Luc cells, Binding %
T2 construct: whole, on cells; expressed on PANC1 cells (PANC1.huCLDN18.1.Luc); also called huCLDN18.1; CLDN18.1
Procedure: as §1

human Claudin18.2 [4] = target: T1, human Claudin18.2; experiment: flow cytometry, PANC1.huCLDN18.2.Luc cells (Example 7)
Procedure: as §1
(§2) Coding sequence of selected clones of humanized single domain antibody were codon optimized for human codon biased expression with GenScript OptimumGene™-Codon Optimization. The resulting coding DNA fragments were synthesized and fused to nucleotides nucleotide coding human IgG1 Fc portion (SEQ ID NO:76), for transient expression in chimeric formats. […] The humanized chimeric anti-Claudin18.2 antibodies were obtained using the mothed described in Example 2. The binding capacity of humanized chimeric antibodies to PANC1.huCLDN18.1.Luc or PANC1.huCLDN18.2.Luc cells were measured.

human Claudin18.1 [5] = target: T2, human Claudin18.1; experiment: flow cytometry on PANC1.huCLDN18.1.Luc cells, Binding %; remark: listed apart in the source
Procedure: as §1, §2

human Claudin18.1 [6] = target: T2, human Claudin18.1; experiment: as above; remark: listed apart in the source
human Claudin18.1 [7] = target: T2, human Claudin18.1; experiment: as above; remark: listed apart in the source

Binder	maximum binding% (human Claudin18.2 [1]) [%]	EC50 (human Claudin18.2 [2]) [nM]	binding result (human Claudin18.1 [3])	EC50 (human Claudin18.2 [4]) [nM]	binding result (human Claudin18.1 [5])	binding result (human Claudin18.1 [6])	binding result (human Claudin18.1 [7])
VHH182501-hIgG1Fc (Fc fusion, chimeric antibody: camelid VHH fused to human IgG1 Fc) EVQLVESGGGSVQAGGSLRLSCAASGYTTSRYGMTWYRQAPAKEREFVSSISISGSTEYADSVKGRFTISHDNVKKTVYLQMNSLKPEDTAMYYCSFYNAYTQYWGQGTQVTVSS[in this place human IgG1 Fc]	~100	2.33	no binding (tested: about 300 nM)	–	–	–	–
VHH182509-hIgG1Fc (Fc fusion, chimeric antibody: camelid VHH fused to human IgG1 Fc) EVQLAESGGGSVQAGGSLRLSCAASGYITSRYGMTWYRQAPAKEREFVSSISLSGSTEYADSVKGRFTISHDNVKKTVYLQMNSLKPEDTAMYYCSFYNAYGQYWGQGIQVTVSS[in this place human IgG1 Fc]	~100	1.67	no binding (tested: about 1000 nM)	–	–	–	–
VHH182510-hIgG1Fc (Fc fusion, chimeric antibody: camelid VHH fused to human IgG1 Fc) QVRLVESGGGSVQVGGSLRLSCAASGYRSSVCMGWFRQAPGKERERVAVIGRDGSTTYIDSVKGRFTISRDSAKNTLSLQMDNLKPEDTAMYSCAAGLGYWACEYDYSGQGTQVTVSS[in this place human IgG1 Fc]	~100	3.24	no binding (tested: about 1000 nM)	–	–	–	–
VHH182511-hIgG1Fc (Fc fusion, chimeric antibody: camelid VHH fused to human IgG1 Fc) QVQLDESGGGSVQAGGSLRLSCAASRSTYCMGWFRQAPGKLRERVANVYMRNGDTWLADSVKGRFTISRDNAKNAVYLQMTRLRPEDTAMYYCAAGRSSCLEASISYWGQGTQVTVSS[in this place human IgG1 Fc]	~100	1.61	no binding (tested: about 1000 nM)	0.328	–	–	–
VHH182511H6-hIgG1Fc (Fc fusion, humanized VHH fused to human IgG1 Fc) QVQLDESGGGLVQPGGSLRLSCAASRSTYCMGWFRQAPGKGLERVANVYMRNGDTWLADSVKGRFTISRDNSKNTLYLQMTSLRAEDTAVYYCAAGRSSCLEASISYWGQGTLVTVSS[in this place human IgG1 Fc]	–	–	–	0.83	no binding (tested: about 100 nM)	–	–
VHH182513-hIgG1Fc (Fc fusion, chimeric antibody: camelid VHH fused to human IgG1 Fc) QVQLEESGGGSVQVGGSLRLSCAASGYRSSVCMGWFRQAPGKERERVAVIGRDGSTTYIDSVKGRFTISRDSAKNTLSLQMDNLKPEDTAMYSCAAGLGYWACEYNYWGQGTQVTVSS[in this place human IgG1 Fc]	~100	6.13	no binding (tested: about 1000 nM)	5.73	–	–	–
VHH182502-hIgG1Fc (Fc fusion, chimeric antibody: camelid VHH fused to human IgG1 Fc) EVQLVESGGGSVQPGGSLSLSCAASGDTFRAKCMAWFRQGPGKEREVVATIQSGYYRPYYTDSVKGRFTISQDADKNRVYLQMDSLKPEDTAMYYCAADRFTYPPGVICGGISENYRYWGQGTRVTVSS[in this place human IgG1 Fc]	~100	2.82	no binding (tested: about 300 nM)	–	–	–	–
VHH182513H4-hIgG1Fc (Fc fusion, humanized VHH fused to human IgG1 Fc) QVQLVESGGGVVQPGRSLRLSCAASGYRSSVCMGWFRQAPGKGLERVAVIGRDGSTTYIDSVKGRFTISRDSAKNTLYLQMNSLRAEDTAMYYCAAGLGYWACEYNYWGQGTLVTVSS[in this place human IgG1 Fc]	–	–	–	14.1	no binding (tested: about 3000 nM)	–	–
VHH182513H1-hIgG1Fc (Fc fusion, humanized VHH fused to human IgG1 Fc) QVQLVESGGGLVQPGGSLRLSCAASGYRSSVCMGWFRQAPGKERERVAVIGRDGSTTYIDSVKGRFTISRDSAKNTLSLQMDSLRAEDTAMYSCAAGLGYWACEYNYWGQGTLVTVSS[in this place human IgG1 Fc]	–	–	–	2.38	–	no binding (tested: about 3000 nM)	–
VHH182513H9-hIgG1Fc (Fc fusion, humanized VHH fused to human IgG1 Fc) QVQLVESGGGVVQPGRSLRLSCAASGYRSSVCMGWFRQAPGKGLERVAVIGRDGSTTYIDSVKGRFTISRDSAKNTLYLQMNSLRAEDTAVYYCAAGLGYWACEYNYWGQGTLVTVSS[in this place human IgG1 Fc]	–	–	–	1.42	–	–	no binding (tested: about 3000 nM)
VHH182513H10-hIgG1Fc (Fc fusion, humanized VHH fused to human IgG1 Fc) QVQLVESGGGVVQPGRSLRLSCAASGYRSSVCMGWFRQAPGKGLERVAVIGRDGSTTYIDSVKGRFTISRDNSKNTLYLQMNSLRAEDTAVYYCARGLGYWACEYNYWGQGTLVTVSS[in this place human IgG1 Fc]	–	–	–	5.03	no binding (tested: about 3000 nM)	–	–
VHH182513H7-hIgG1Fc (Fc fusion, humanized VHH fused to human IgG1 Fc) QVQLEESGGGSVQVGGSLRLSCAASGYRSSVCMGWVRQAPGKGLEWVAVIGRDGSTTYIDSVKGRFTISRDSAKNTLSLQMDNLKPEDTAMYSCAAGLGYWACEYNYWGQGTQVTVSS[in this place human IgG1 Fc]	–	–	–	12.7	no binding (tested: about 3000 nM)	–	–
VHH182503-hIgG1Fc (Fc fusion, chimeric antibody: camelid VHH fused to human IgG1 Fc) EVQLVESGGGSVQAGGSLRLSCVASGTIYSAYYMGWFRQPPGKEHEGVATVIPGGTQTYYADSVKGRFTMSRDNAKNTVYLQMNSLKPEDTGMYYCAATYLVGSAPLSPSRFRYWGQGTQVTVSS[in this place human IgG1 Fc]	~100	2.16	no binding (tested: about 300 nM)	–	–	–	–
VHH182504-hIgG1Fc (Fc fusion, chimeric antibody: camelid VHH fused to human IgG1 Fc) EVQLVESGGGSVQAGGSLRLSCEVTSYTVRLYCMGWFRQDSEKAREGVAAIDYYGSTTYADSVKGRFTISRDNAKNTLYLQMNSLKPEDSAVYYCASRRTSWCSVSFNGYDDWGQGTQVTVSS[in this place human IgG1 Fc]	~100	3.65	no binding (tested: about 300 nM)	–	–	–	–
VHH182505-hIgG1Fc (Fc fusion, chimeric antibody: camelid VHH fused to human IgG1 Fc) QVQLVESGGGSVQVGGSLRLSCAASGYRASVCMGWFRQAPGKERERVALIGRTGSTTYIDSVKGRFTISRDSAKNTLSLQMDNLKPEDTAMYSCAAGLGYWDCDYNYWGQGTQVTVSS[in this place human IgG1 Fc]	~100	3.45	no binding (tested: about 300 nM)	–	–	–	–
VHH182506-hIgG1Fc (Fc fusion, chimeric antibody: camelid VHH fused to human IgG1 Fc) QVHLVESGGGSVQAGGSLTLSCVVSGAEYYSGDMNWYRQAPGKEREFVSGINRAGNTNYAASVKGRFSISRDSARTTGYLQMNSLKSEDTAMYYCQGTYCRMALFGACNDYWGQGTQVTVSS[in this place human IgG1 Fc]	~100	3.92	no binding (tested: about 300 nM)	–	–	–	–
VHH182507-hIgG1Fc (Fc fusion, chimeric antibody: camelid VHH fused to human IgG1 Fc) QVQLAESGGGSVQAGGSLKLICTASRATDCNYMSWHRQAPGKEREFVSRIFPSGKTTYADSMKARFSISQDNAKNSVYLLMVNLKPEDTGKYYCQGSCRGPGSIWPSDYWGQGTQVTVSS[in this place human IgG1 Fc]	~100	3.96	no binding (tested: about 300 nM)	–	–	–	–
VHH182508-hIgG1Fc (Fc fusion, chimeric antibody: camelid VHH fused to human IgG1 Fc) EVQLAESGGGSVQAGGSLRLSCAASRYISSSYCMSWFRQAPGKEREGVAAISTRGGSTYYVDSVKGRFTIFQGNAGATVYLQMNSLKPEDTAMYYCAAAEGLCGWGGWESAVRFGSWGQGTQVTVSS[in this place human IgG1 Fc]	~100	1.7	no binding (tested: about 300 nM)	–	–	–	–
175DX-hIgG1Fc (Fc fusion, scFv of IMAB362 (zolbetuximab) fused to human IgG1 Fc; also called benchmark; control antibody) DIVMTQSPSSLTVTAGEKVTMSCKSSQSLLNSGNQKNYLTWYQQKPGQPPKLLIYWASTRESGVPDRFTGSGSGTDFTLTISSVQAEDLAVYYCQNDYSYPFTFGSGTKLEIKGSTSGSGKPGSGEGSTKGQVQLQQPGAELVRPGASVKLSCKASGYTFTSYWINWVKQRPGQGLEWIGNIYPSDSYTNYNQKFKDKATLTVDKSSSTAYMQLSSPTSEDSAVYYCTRSWRGNSFDYWGQGTTLTVSS[in this place human IgG1 Fc]	–	13.5	–	49.2	–	–	–
